Measurements from PubChem BioAssay AID488969 (Vanderbilt High Throughput Screening Facility, 2010).
In all, about 110,000 compounds were measured (“z-score”: median about -0.1, highest 2% from about 2 on). This is one part of the list. The source made the active and inactive calls.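 How the source made its calls: active means z-score in the third read window above 3 or below -3; inactive means the rest.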 Residues, ends and D or L forms follow the SMILES beside them.

What follows are molecules tested against Metabotropic glutamate receptor 8 (Rattus norvegicus) (UniProt P70579) (assay: rat mGluR8 modulators via GIRK flux, primary screen, cell-based, thallium flux, HTS (AID 488969)). Conditions: HEK293 rat mGluR8, GIRK (G protein-gated inwardly rectifying potassium channel) thallium flux, FluoZin2; at 10 µM; stronger effect = higher value; submaximal glutamate (EC20) added with thallium.
Chain of UniProt P70579 (P70579 whole entry, looked up): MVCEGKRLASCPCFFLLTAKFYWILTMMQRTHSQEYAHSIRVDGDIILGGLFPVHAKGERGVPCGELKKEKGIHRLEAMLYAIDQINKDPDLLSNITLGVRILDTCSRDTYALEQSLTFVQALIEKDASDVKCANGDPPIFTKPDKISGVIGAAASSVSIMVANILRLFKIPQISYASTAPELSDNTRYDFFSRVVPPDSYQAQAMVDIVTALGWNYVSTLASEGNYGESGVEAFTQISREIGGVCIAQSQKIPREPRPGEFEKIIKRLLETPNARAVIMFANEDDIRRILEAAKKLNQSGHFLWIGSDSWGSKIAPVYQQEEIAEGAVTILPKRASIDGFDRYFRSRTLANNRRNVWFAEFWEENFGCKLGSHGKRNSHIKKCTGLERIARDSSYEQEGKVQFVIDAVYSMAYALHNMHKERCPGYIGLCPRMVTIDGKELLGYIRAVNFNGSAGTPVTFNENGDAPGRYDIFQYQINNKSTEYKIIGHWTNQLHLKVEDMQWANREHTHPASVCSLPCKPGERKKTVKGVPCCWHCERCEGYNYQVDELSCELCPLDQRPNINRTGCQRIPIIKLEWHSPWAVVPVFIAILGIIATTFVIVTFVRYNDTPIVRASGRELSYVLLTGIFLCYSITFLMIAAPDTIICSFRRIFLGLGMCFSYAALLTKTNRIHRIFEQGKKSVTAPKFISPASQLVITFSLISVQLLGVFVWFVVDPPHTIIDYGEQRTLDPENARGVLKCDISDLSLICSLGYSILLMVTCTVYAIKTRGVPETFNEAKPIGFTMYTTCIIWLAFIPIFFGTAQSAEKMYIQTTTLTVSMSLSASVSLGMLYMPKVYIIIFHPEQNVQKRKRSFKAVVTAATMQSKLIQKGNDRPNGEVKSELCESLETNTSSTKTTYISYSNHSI

SMILES | z-score
CC(CNC(=O)C(C)(C)C)NC(=O)C(C)(C)C (centres undefined) | 0.657
COC(=O)C(NNc1ccccc1)(NC(=O)c1ccc(F)cc1)C(F)(F)F (centres undefined) | -0.175
c1ccc(CNc2ccc(CNc3ncn[nH]3)cc2)cc1 | 0.0226
O=C(NCc1ccccc1)c1cccc(S(=O)(=O)N2CCOCC2)c1 | -0.267
Cc1ccc(NC(=O)Cc2ccc(-n3cccc3)cc2)c(C)c1 | -0.223
O=C(NC(Cc1c[nH]c2ccccc12)C(=O)O)c1ccccc1 (centres undefined) | 0.919
Cc1nc2c(C(=O)N3CCCC3)cnn2c(C)c1Cc1c(F)cccc1Cl | -0.165
O=C(c1ccco1)N1CCN(C(=O)C2CCCc3c2[nH]c2ccc(Cl)cc32)CC1 (centres undefined) | 0.664
COc1cc2[nH]c(=S)n(Cc3ccco3)c(=O)c2cc1OC | -0.209
O=C1NCCN/C1=C\C(=O)c1ccccc1 | -0.207
Cc1ccc(OCC(O)CN2C(=O)NC(C)(C)C2=O)cc1 (centres undefined) | -0.38
FC(F)(F)c1nnc(-c2ccccc2)nc1Oc1ccc(Cl)cc1Cl | -0.78
COc1ccc(CCNC(=O)c2[nH]c(C)c(C(C)=O)c2C)cc1 | 0.356
CC(=O)/C(=N/Nc1ccccc1)Sc1nnc(C(O)c2ccccc2)n1-c1ccccc1 (centres undefined) | -0.33
CCOC(=O)c1cc(-c2ccco2)nc2c1c(C)nn2CCC#N | -0.644
Cc1ncc([N+](=O)[O-])n1CCOC(=O)NC(NCc1cccnc1)C(Cl)(Cl)Cl (centres undefined) | -0.077
O=C(Nc1ccc2c(c1)CCC2)c1ccc(Br)o1 | 0.541
CC(=O)[C@@H]1[C@@H](C(=O)c2ccc(C)cc2)[C@]2(C(=O)Nc3ccccc32)[C@H]2C=Cc3cc(F)ccc3N12 | 0.0643
CC1=Nc2ccccc2NC(=O)C1Sc1nnc(C)s1 (centres undefined) | -0.879
CC(C)CNC(=O)CC(c1ccccc1)c1c(O)ccc2ccccc12 (centres undefined) | -1.19
Cc1nnc(SCC(=O)NCCc2ccccc2)[nH]c1=O | 0.28
Cc1ccsc1-c1ccnc(-n2cccc2)n1 | 0.125

SMILES | z-score
COc1cc(NC(=O)c2cc(-c3ccco3)on2)c(OC)cc1Cl | 0.0265
Nc1c(-c2ccccc2)c(CN2CCOCC2)nn1-c1ccc(C(=O)O)cc1 | 0.443
COc1ccc(-n2c(COc3cccc(C)c3)nnc2SCC(=O)NCc2ccco2)cc1 | -0.29
CCOc1ccc(NC(=O)C(C)SC(N)=O)cc1 (centres undefined) | -0.575
O=C(NCc1ccccc1)C1CCN(S(=O)(=O)N2CCCCCC2)CC1 | 0.233
CCCn1c(SCC(=O)Nc2cccc(C)n2)nnc1-c1ccco1 | 1.16
O=c1[nH]c(SCc2nc3c(cnn3-c3ccccc3)c(=O)[nH]2)nc2ccccc12 | -0.279
O=C(/C(C=Nc1cccc(C(F)(F)F)c1)=C(/O)c1ccco1)C(F)(F)F | 0.128
Cc1cc(C)nc(NC(=NCCc2c[nH]c3ccccc23)NC(=O)Nc2ccc(Cl)c(Cl)c2)n1 | -0.0996
COc1ccc(/C=N/NC(=O)Cn2c(Cc3ccc(OC)c(OC)c3)nc3ccccc32)cc1OC | -0.559
CCCCSc1nc(C)c(C(C)=O)cc1C#N | 0.35
O=C(CCN1CCN(C(c2ccccc2)c2ccccc2)CC1)N/N=C/c1ccc(O)cc1 | -0.602
COc1ccc(Cl)cc1C(=O)NCC(c1ccco1)N1CCCC1 (centres undefined) | 0.25
CCCCC(=O)Nc1ccc2oc(-c3ccncc3)nc2c1 | 0.0146
Cc1cccc(N(CC(=O)Nc2ccc(CC#N)cc2)S(C)(=O)=O)c1 | -0.138
COc1ccc(OC)c(-n2c(-c3cc(-c4ccc(F)cc4)n[nH]3)n[nH]c2=S)c1 | -0.393
COCC(=O)Nc1cc(OC)c(Cl)cc1OC | -0.118
Cc1nc(N2CCN(c3ncccn3)CC2)c2oc3ccccc3c2n1 | -0.533
CC(=O)Nc1c(OC(C)=O)ccc2c(C)cc(=O)oc12 | -0.24
O=C(Nn1cnnc1)c1cc2c(s1)CCCCC2 | -0.148
CCOc1ccccc1NC(=O)CSc1nnc2c(CC)c(C)nc(N)n12 | 0.806
O=C(COC(=O)C1COc2ccccc2O1)Nc1ccc2c(c1)CCC2 (centres undefined) | -0.613

SMILES | z-score
CC(CN(C)Cc1ccccc1)OC(=O)c1ccc(F)cc1 (centres undefined) | -0.647
CCOc1ccc(CSC(=N)N)cc1[N+](=O)[O-] | 0.854
Cc1ccccc1NC(=O)CN1C(=O)C2C3CC(C(Br)C3Br)C2C1=O (centres undefined) | 0.11
COC(=O)CCC(=O)c1oc2ccc(OC)cc2c1N | -0.054
O=C(COc1ncnc2ccccc12)Nc1ccc(Cl)c([N+](=O)[O-])c1 | 0.057
COc1ccc2c(c1)c(N=O)c(O)n2C | -0.55
CCOC(=O)C1C(=O)C=C(c2ccc(C)cc2)CC1c1cccc([N+](=O)[O-])c1 (centres undefined) | -0.259
CCOC(=O)c1[nH]c2ccccc2c1NC(=O)C1CCCCC1 | -0.469
CN(c1ccccc1C(=O)NCc1ccccn1)S(C)(=O)=O | 0.378
COC(=O)c1ccc(Oc2nc3c(c(=O)n(C)c(=O)n3C)n2CCC(C)C)cc1 | 1.63
O=C(CN1C(=O)CSc2ncccc21)NCCN1CCOCC1 | -0.21
Cc1ccc(NC(=O)CSCC#N)cc1 | -0.515
CC1(C2CC2)NC(=O)NC1=O (centres undefined) | -0.156
CN(C)S(=O)(=O)N(CC(=O)Nc1ccccc1C(F)(F)F)c1ccccc1 | -0.553
COc1cccc(CNC(=O)C2=C(C)C(=O)OC23CCC(C)CC3)c1 (centres undefined) | 0.296
O=C(CSc1nc2ccccc2c(=O)n1-c1ccccc1)c1c[nH]c2ccccc12 | 0.111
Cc1ccc(NC(=O)CCC(=O)n2nc(C)cc2C)c(C)c1 | 0.195
COc1ccc(-n2cnnc2SCC(=O)N2CCN(c3ccccc3)CC2)cc1 | -0.51
CNc1oc(-c2ccc(OCc3ccccc3)cc2)nc1C#N | -1.76
O=C(CSc1nc2ccccc2o1)c1cc2ccccc2oc1=O | 0.0764
O=C1CCN(C(=O)Nc2cccc(Cl)c2)N1 | -0.0566
CCN(CC)CCN1C(=O)c2oc3ccccc3c(=O)c2C1c1ccc(F)cc1 (centres undefined) | active: 4.39

SMILES | z-score
Nc1ccc2nc(-c3ccc(Cl)cc3)[nH]c2c1 | -0.282
Cc1cccc2c(C(=O)n3cccn3)cc(-c3ccccc3Cl)nc12 | 0.0843
FC(F)(F)c1cnc(Oc2ccccc2-c2nnc(-c3ccc(Cl)cc3)o2)c(Cl)c1 | 0.667
CCOc1ccc2[nH]c(=O)c(C(c3nnnn3CCOC)N3CCOCC3)cc2c1 (centres undefined) | -0.578
COc1ccccc1NCC(O)Cn1c2ccccc2c2ccccc21 (centres undefined) | 0.65
COC(=O)C(CC(C)C)NC(=O)C(N)Cc1ccccc1 (stereo not drawn) (H-Phe-Leu-OMe; configuration not given here) | -0.144
CC(C)(C)N(NC(=O)c1ccccc1)C(=O)c1cccc(C(=O)N(NC(=O)c2ccccc2)C(C)(C)C)c1 | 0.0347
CC(C)N(CCNC(=O)c1cn(C)c2ccc(S(=O)(=O)N(C)C)cc2c1=O)Cc1ccccc1 | -0.183
O=C(/C=C/c1ccc(Br)cc1)NC(=S)NNC(=O)c1ccco1 | 0.734
Cc1ccc(SCC(=O)NNC(=O)C2CCCCC2)cc1 | -0.0681
O=C(c1ccccc1)n1nc(-c2ccccc2)nc1NCc1ccco1 | 0.149
COc1ccccc1N1CCN(S(=O)(=O)c2c(C)ccc3nsnc23)CC1 | 0.895
CN1CCC(N(C)CC(=O)Nc2cccc(Oc3ccccc3)c2)CC1 | 0.0575
COc1ccc(C2C(C(=O)N3CCOCC3)CCC(=O)N2c2cc(OC)c(OC)c(OC)c2)cc1 (centres undefined) | 0.336
Cc1ccsc1CNn1cnnc1SCc1ccc(Cl)cc1 | -0.235
O=C(CCNS(=O)(=O)c1cccs1)NCc1ccccc1 | -0.137
CC(C)[C@H](NS(=O)(=O)c1ccccc1)C(=O)OCC(=O)NC(=O)c1cccn1C | 0.302
CCCN(CC(=O)Nc1ccccc1Br)CC(=O)Nc1ccc(F)c(F)c1F | -0.145
CC(C)(C)c1cc(CNC2CS(=O)(=O)C[C@@H]2O)cc(C(C)(C)C)c1O (some centres undefined) | -0.0329
COc1cc(NC(=S)N2CCN(c3ccccn3)CC2)c(OC)cc1Cl | -0.225
O=C(C1CCN(c2nnnn2-c2ccccc2)CC1)N1CCN(c2ccccc2)CC1 | -0.146
CN(C)S(=O)(=O)Nc1ccccc1C(N)=O | 0.208

SMILES | z-score
CC(C)CNS(=O)(=O)c1ccc(S(=O)(=O)N2CCC3(CC2)OCCO3)cc1 | -1.75
O=C1CC(C(=O)N2CCN(c3ccc(F)cc3)CC2)CN1CCc1ccccc1 (centres undefined) | -0.367
COc1ccccc1Nc1nc(-c2sc(NC(=O)c3ccc([N+](=O)[O-])cc3)nc2C)cs1 | 0.09
CCOC(=O)Cn1nc(-c2ccc(Cl)cc2)cc1N | -0.0867
CCOC(=O)/C(C(C)=O)=C1\OC(=O)c2ccccc21 | -0.414
NC(=O)Cn1c(=O)n(CCc2ccccc2)c(=O)c2c3c(sc21)CCCC3 | -0.313
CC1=C(C)CC(C(=O)Nc2nc(-c3ccc(C)cc3C)c(C)s2)C(C(=O)O)C1 (centres undefined) | -0.91
O=C(NCCCn1ccnc1)c1cc(-c2ccc(Cl)cc2)nc2ccccc12 | -0.0592
COc1ccc(N2CC(C(=O)Nc3ccccc3C(=O)NCc3ccco3)CC2=O)cc1 (centres undefined) | -0.164
O=C(NCC1CCCO1)c1cccc(N2C(=O)C3C4C=CC(C4)C3C2=O)c1 (centres undefined) | 0.367
Cc1ccn(C(CC(=O)c2ccc(Br)cc2)C(=O)O)n1 (centres undefined) | -0.213
O=C(CSc1nnc(-c2ccc(F)cc2)c2ccccc12)Nc1cccc(Cl)c1 | 0.00588
CCCSc1nc(C)nc2c1c(=O)n(C)c(=O)n2C | -1.49
COC(=O)C1=C(NC(C)=O)CCS1 | 0.792
CC(=O)c1sc(NC(=O)c2ccccc2F)nc1C | -0.14
COc1cc(C=Nc2cccc(C)c2)c(O)c([N+](=O)[O-])c1 | -0.684
Cc1ccc(C(=O)NNC(=O)c2cccc(S(=O)(=O)N3CCN(c4ccccc4)CC3)c2)cc1 | -0.324
O=C(Nc1ccon1)c1ccc(S(=O)(=O)N2CCCCCC2)cc1 | -0.427
C=CCn1c(C(CC(C)C)CC(C)O)n[nH]c1=S (centres undefined) | -0.476
COc1ccccc1NC(=S)NNC(=O)c1ccc(O)cc1 | -0.545
Cc1ccc(C(=O)Nc2nnc(SCC(=O)N3CCCc4ccccc43)s2)cc1 | 0.0792
